Results taken from the supplement of paper PMC4967469.
pIC50: −log10 of the molar value. Lines with a small IC50 respond at low doses; a fit beyond the top or the lowest dose is shown as a bound at that dose. The AUC spans the tested range (256-fold, ending at the top dose) of the same fit; the more sensitive the line, the further below 1. Where the top dose is marked as inferred, it comes from the curve model; the source does not state it.

Compound: COc1ncc(-c2ccc3nccc(-c4ccnnc4)c3c2)cc1NS(=O)(=O)c1ccc(F)cc1F [GSK2126458]
Assay: Viability of human cancer cell lines after 72 h of drug (GDSC screen)
Conditions: top dose inferred
Description: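 Human cancer cell lines in 384-well plates, medium with 10% serum, drug for 72 h over a 256-fold dose range (nine 2-fold or five 4-fold steps up to the top dose). Adherent lines were fixed and stained with the nucleic acid dye Syto60, suspension lines read with resazurin; signal relative to control wells, capped at 0 and 100%. One two-parameter sigmoid per drug and line, fitted in a mixed model over all curves with the slope shared within a line.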

| Cell Line | AUC | pIC50 |
| --- | --- | --- |
| KON (head and neck, adherent, top dose 0.128 µM) | 0.97 | < 6.89 |
| KOPN-8 (B-cell leukaemia, suspension, top dose 0.128 µM) | 0.635 | 7.75 |
| KOSC-2 (head and neck, adherent, top dose 0.128 µM) | 0.635 | 7.71 |
| KP-2 (pancreas, adherent, top dose 0.128 µM) | 0.54 | 7.98 |
| KP-3 (pancreas, adherent, top dose 0.128 µM) | 0.749 | 7.32 |
| KP-4 (pancreas, adherent, top dose 0.128 µM) | 0.728 | 7.46 |
| KP-N-YN (neuroblastoma, adherent, top dose 0.128 µM) | 0.9 | < 6.89 |
| KP-N-YS (neuroblastoma, adherent, top dose 0.128 µM) | 0.801 | 7.13 |
| KS-1 (glioma, adherent, top dose 0.128 µM) | 0.496 | 8.11 |
| KU812 (chronic myeloid leukaemia, suspension, top dose 0.128 µM) | 0.304 | 8.62 |
| KU-19-19 (bladder, adherent, top dose 0.128 µM) | 0.961 | < 6.89 |
| KURAMOCHI (ovary, adherent, top dose 0.128 µM) | 0.609 | 7.78 |
| KY821 (leukaemia, suspension, top dose 0.128 µM) | 0.882 | 6.97 |
| KYAE-1 (oesophagus, suspension, top dose 0.128 µM) | 0.31 | 8.66 |
| KYM-1 (rhabdomyosarcoma, adherent, top dose 0.128 µM) | 0.884 | 6.98 |
| KYSE-50 (oesophagus, adherent, top dose 0.128 µM) | 0.398 | 8.37 |
| KYSE-70 (oesophagus, adherent, top dose 0.128 µM) | 0.886 | < 6.89 |
| KYSE-140 (oesophagus, adherent, top dose 0.128 µM) | 0.739 | 7.37 |
| KYSE-150 (oesophagus, adherent, top dose 0.128 µM) | 0.833 | 7.11 |
| KYSE-180 (oesophagus, adherent, top dose 0.128 µM) | 0.867 | 6.97 |
| KYSE-220 (oesophagus, adherent, top dose 0.128 µM) | 0.441 | 8.26 |
| KYSE-270 (oesophagus, adherent, top dose 0.128 µM) | 0.822 | 7.22 |
| KYSE-410 (oesophagus, adherent, top dose 0.128 µM) | 0.672 | 7.60 |
| KYSE-450 (oesophagus, adherent, top dose 0.128 µM) | 0.428 | 8.29 |
| KYSE-510 (oesophagus, adherent, top dose 0.128 µM) | 0.913 | < 6.89 |
| KYSE-520 (oesophagus, adherent, top dose 0.128 µM) | 0.632 | 7.68 |

| Cell Line | AUC | pIC50 |
| --- | --- | --- |
| L-363 (myeloma, suspension, top dose 0.128 µM) | 0.464 | 8.19 |
| L-428 (Hodgkin lymphoma, suspension, top dose 0.128 µM) | 0.89 | 6.94 |
| L-540 (Hodgkin lymphoma, suspension, top dose 0.128 µM) | 0.906 | < 6.89 |
| L-1236 (Hodgkin lymphoma, suspension, top dose 0.128 µM) | 0.889 | 6.97 |
| LAMA-84 (chronic myeloid leukaemia, suspension, top dose 0.128 µM) | 0.721 | 7.46 |
| LAN-6 (neuroblastoma, adherent, top dose 0.128 µM) | 0.83 | 6.99 |
| LB373-MEL-D (melanoma, adherent, top dose 0.128 µM) | 0.968 | < 6.89 |
| LB771-HNC (head and neck, adherent, top dose 0.128 µM) | 0.659 | 7.61 |
| LB831-BLC (bladder, adherent, top dose 0.128 µM) | 0.86 | 6.96 |
| LB996-RCC (kidney, adherent, top dose 0.128 µM) | 0.932 | < 6.89 |
| LB1047-RCC (kidney, adherent, top dose 0.128 µM) | 0.605 | 7.79 |
| LB2241-RCC (kidney, adherent, top dose 0.128 µM) | 0.982 | < 6.89 |
| LB2518-MEL (melanoma, adherent, top dose 0.128 µM) | 0.892 | < 6.89 |
| LC4-1 (lymphoblastic leukaemia, suspension, top dose 0.128 µM) | 0.354 | 8.52 |
| LC-1-sq (lung squamous cell carcinoma, adherent, top dose 0.128 µM) | 0.533 | 8.00 |
| LC-2-ad (lung adenocarcinoma, adherent, top dose 0.128 µM) | 0.53 | 8.01 |
| LCLC-97TM1 (large cell lung carcinoma, adherent, top dose 0.128 µM) | 0.484 | 8.14 |
| LCLC-103H (large cell lung carcinoma, adherent, top dose 0.128 µM) | 0.722 | 7.50 |
| LK-2 (lung squamous cell carcinoma, adherent, top dose 0.128 µM) | 0.882 | 6.91 |
| LN-18 (glioma, adherent, top dose 0.128 µM) | 0.967 | < 6.89 |
| LN-229 (glioma, adherent, top dose 0.128 µM) | 0.951 | < 6.89 |
| LN-405 (glioma, adherent, top dose 0.128 µM) | 0.642 | 7.66 |
| LNCaP-Clone-FGC (prostate, adherent, top dose 0.128 µM) | 0.61 | 7.77 |
| LNZTA3WT4 (glioma, adherent, top dose 0.128 µM) | 0.856 | 7.00 |
| LOU-NH91 (lung squamous cell carcinoma, adherent, top dose 0.128 µM) | 0.957 | < 6.89 |
| LOUCY (T-cell lymphoblastic leukaemia, suspension, top dose 1.024 µM) | 0.211 | 7.95 |

| Cell Line | AUC | pIC50 |
| --- | --- | --- |
| LOXIMVI (melanoma, semi-adherent, top dose 0.128 µM) | 0.782 | 7.32 |
| LP-1 (myeloma, suspension, top dose 0.128 µM) | 0.448 | 8.23 |
| LS-123 (large intestine, adherent, top dose 0.128 µM) | 0.672 | 7.55 |
| LS-180 (large intestine, adherent, top dose 0.128 µM) | 0.829 | 7.02 |
| LS-411N (large intestine, adherent, top dose 1.024 µM) | 0.373 | 7.58 |
| LS-513 (large intestine, adherent, top dose 1.024 µM) | 0.591 | 6.94 |
| LS-1034 (large intestine, adherent, top dose 0.128 µM) | 0.715 | 7.46 |
| LU-65 (large cell lung carcinoma, suspension, top dose 0.128 µM) | 0.535 | 8.00 |
| LU-99A (large cell lung carcinoma, adherent, top dose 0.128 µM) | 0.924 | < 6.89 |
| LU-134-A (small cell lung carcinoma, suspension, top dose 0.128 µM) | 0.81 | 7.14 |
| LU-135 (small cell lung carcinoma, suspension, top dose 0.128 µM) | 0.647 | 7.72 |
| LU-139 (small cell lung carcinoma, suspension, top dose 0.128 µM) | 0.776 | 7.18 |
| LU-165 (small cell lung carcinoma, suspension, top dose 0.128 µM) | 0.844 | 6.96 |
| LXF-289 (lung adenocarcinoma, adherent, top dose 0.128 µM) | 0.861 | 6.98 |
| LoVo (large intestine, adherent, top dose 0.128 µM) | 0.899 | < 6.89 |
| M14 (melanoma, adherent, top dose 0.128 µM) | 0.987 | < 6.89 |
| M059J (glioma, adherent, top dose 0.128 µM) | 0.74 | 7.38 |
| MC116 (B-cell lymphoma, suspension, top dose 0.128 µM) | 0.431 | 8.26 |
| MC-CAR (haematopoietic neoplasm, suspension, top dose 0.128 µM) | 0.404 | 8.35 |
| MC-IXC (neuroblastoma, adherent, top dose 0.128 µM) | 0.794 | 7.37 |
| MCF7 (breast, adherent, top dose 0.128 µM) | 0.986 | < 6.89 |
| MDA-MB-157 (breast, adherent, top dose 0.128 µM) | 0.952 | < 6.89 |
| MDA-MB-175-VII (breast, adherent, top dose 0.128 µM) | 0.538 | 7.99 |
| MDA-MB-231 (breast, adherent, top dose 0.128 µM) | 0.924 | < 6.89 |
| MDA-MB-330 (breast, adherent, top dose 0.128 µM) | 0.637 | 7.69 |
